# Reference: PubChem BioAssay AID504339 (National Center for Advancing Translational Sciences (NCATS), 2011)
# The whole screen tested about 390,000 compounds, of which about 17,000 (4.4%) were called active. Inconclusive results, whose numbers are uncertain, are shown with a selection of clear calls. Calls come from the whole dose curve; as a rule, active = well fitted inhibition curve with a large enough effect; inconclusive = small, poorly fitted or top-dose-only effect; inactive = no such curve, though single readings can be large or run the other way. A potency beside an inconclusive call is a rough fit, not a confirmed value.
# Target: Lysine-specific demethylase 4A (Homo sapiens) (UniProt O75164)
# Chain of UniProt O75164 (O75164 whole entry, looked up, the tested form may be a part): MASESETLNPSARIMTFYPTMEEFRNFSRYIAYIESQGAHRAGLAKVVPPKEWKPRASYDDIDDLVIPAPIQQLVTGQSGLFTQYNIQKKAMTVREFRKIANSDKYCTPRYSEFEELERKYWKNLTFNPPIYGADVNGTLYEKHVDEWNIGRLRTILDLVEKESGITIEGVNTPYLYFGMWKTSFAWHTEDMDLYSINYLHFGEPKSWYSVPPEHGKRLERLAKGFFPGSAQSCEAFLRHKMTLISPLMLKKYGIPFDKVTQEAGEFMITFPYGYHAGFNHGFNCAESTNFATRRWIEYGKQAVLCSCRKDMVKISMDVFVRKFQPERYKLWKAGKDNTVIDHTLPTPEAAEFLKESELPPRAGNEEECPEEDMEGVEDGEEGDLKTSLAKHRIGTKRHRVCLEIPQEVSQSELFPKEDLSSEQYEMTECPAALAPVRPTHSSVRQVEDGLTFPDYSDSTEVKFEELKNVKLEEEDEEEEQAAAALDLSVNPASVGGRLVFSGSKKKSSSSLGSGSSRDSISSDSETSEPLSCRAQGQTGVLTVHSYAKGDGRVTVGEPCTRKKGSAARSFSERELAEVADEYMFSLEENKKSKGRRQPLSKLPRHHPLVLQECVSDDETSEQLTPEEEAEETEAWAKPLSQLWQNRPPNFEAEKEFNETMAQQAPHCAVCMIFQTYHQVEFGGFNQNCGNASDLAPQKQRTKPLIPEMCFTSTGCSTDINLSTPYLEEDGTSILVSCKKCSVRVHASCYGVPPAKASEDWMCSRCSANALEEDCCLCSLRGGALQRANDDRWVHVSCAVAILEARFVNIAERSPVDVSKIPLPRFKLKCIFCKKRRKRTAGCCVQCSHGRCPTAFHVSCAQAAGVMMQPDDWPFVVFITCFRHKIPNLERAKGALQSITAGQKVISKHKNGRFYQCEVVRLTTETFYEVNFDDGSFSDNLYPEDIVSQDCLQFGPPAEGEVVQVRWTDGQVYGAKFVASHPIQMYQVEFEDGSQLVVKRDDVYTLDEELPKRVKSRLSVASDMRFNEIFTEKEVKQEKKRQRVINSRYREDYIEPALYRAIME
# Experiment: qHTS Assay for Inhibitors of JMJD2A-Tudor Domain; note: nearly all actives have a fitted effect of over 50% in size
# Details: AlphaScreen JMJD2A-Tudor / H3K4me3 peptide binding; series mostly up to 114 µM
# Potency is the fitted concentration of half-maximal effect; tags give direction and shape of the fitted curve.
row,SMILES,Potency
1,COc1ccc(Nc2cc3n(c(=O)n2)CCc2cc(OC)c(OC)cc2-3)cc1,"inconclusive: 20 µM [inhibitor, full curve]"
2,Oc1ccccc1N1CCN(c2nc(-c3cccs3)nc3ccccc23)CC1,"inconclusive: 56.2 µM [inhibitor, partial curve, poor fit]"
3,Cc1ccc(C(=O)CSc2nnc(CNc3ccc(C)cc3C)n2Cc2ccco2)cc1,"inconclusive: 89.1 µM [inhibitor, partial curve]"
4,O=C(Nc1ccc(N2CCOCC2)cc1N1CCOCC1)c1ccco1,active: 56.2 µM
5,CC(=O)c1cccc(N(CC(=O)NCCc2ccccc2)C(=O)c2csnn2)c1,"inconclusive: 0.794 µM [inhibitor, full curve]"
6,CC(C)(C)c1csc(Sc2ncccc2[N+](=O)[O-])n1,"inconclusive: 20 µM [inhibitor, full curve]"
7,Cc1ccc(NCc2ccc(O)c3ncccc23)cc1C,"inconclusive: 79.4 µM [inhibitor, single point]"
8,CSc1nnc(NC(=O)c2ccc(S(=O)(=O)N3CCOCC3)cc2)s1,inactive
9,CCOC(=O)c1nn(-c2ccc(C)cc2)c(=O)cc1OCC(=O)Nc1ccc(OC)cc1,inactive
10,COC(=O)c1ccc(NC(=S)N2CCC(C(N)=O)CC2)cc1,inactive
11,COc1ccc(C(=O)NCCNc2nc3c(C)cccc3cc2C#N)cc1,inactive
12,CC1CCCC(C)N1/N=C/c1ccc([N+](=O)[O-])cc1 (stereo unspecified),active: 35.5 µM
13,C=CC(=O)Nc1cccc(CN2C(=O)N(c3cc(OC)cc(OC)c3)Cc3cnc(NCCCCN(CC)CC)nc32)c1,"inconclusive: 50.1 µM [inhibitor, partial curve]"
14,CC(=O)NS(=O)(=O)c1ccc(N=c2ssc3c2-c2ccc(C)cc2NC3(C)C)cc1,"inconclusive: 31.6 µM [inhibitor, partial curve]"
15,Nc1ccccc1SCC(=O)Nc1nc(-c2ccccc2)cs1,"inconclusive: 56.2 µM [inhibitor, partial curve]"
16,O=C(NCc1ccccn1)c1ccc(OC2CCN(Cc3ccc(Cl)s3)CC2)cc1,inactive
17,CN(C)C(=S)N=c1ssc(=S)n1Cc1ccccc1,"inconclusive: 11.2 µM [inhibitor, full curve]"
18,Cn1c(=S)n(/N=C/c2ccc3c(c2)OCO3)c2ccccc21,inactive
19,Fc1cccc(CCN2CCNC[C@@H]2CC2CCCCC2)c1,inactive
20,CCOc1ccc(-n2ccnc(SCC(=O)Nc3ccc(OC)cc3OC)c2=O)cc1,"inconclusive: 22.4 µM [inhibitor, partial curve]"
21,COc1ccc(C2/C=C\CN(Cc3ccco3)CC(=O)N2Cc2ccc(F)cc2)cc1 (stereo unspecified),"inconclusive: 79.4 µM [inhibitor, partial curve]"
22,COc1ccccc1/C=C/CN1CCN(c2ccccc2)CC1,active: 22.4 µM
23,Cc1ccccc1Nc1nc(N)nc(CN(C)Cc2ccccc2Cl)n1,"inconclusive: 50.1 µM [inhibitor, partial curve]"

row,SMILES,Potency
1,CC(NC(=O)NCCCn1ccnc1)(C(F)(F)F)C(F)(F)F,inactive
2,C[C@H](NC(=O)C1CC(=O)N(c2ccc(F)cc2)C1)C(=O)N1CCCCC1 (stereo partly specified),"inconclusive: 14.1 µM [inhibitor, full curve]"
3,O=C(NCCCn1ccnc1)C(=O)NCC1OCCN1S(=O)(=O)c1ccc2c(c1)OCCO2 (stereo unspecified),"inconclusive: 79.4 µM [inhibitor, partial curve]"
4,COc1ccc(CN(C)CC(O)COc2ccc(-c3ccccc3)cc2)cc1OC (stereo unspecified),active: 35.5 µM
5,COc1ccc(CN2C(=O)/C(=C/c3ccncc3)SC2=S)cc1,active: 50.1 µM
6,CC(C)n1c(N)c(C#N)c2ccc([N+](=O)[O-])cc2c1=O,inactive
7,Cc1onc(-c2ccccc2Cl)c1C(=O)Nc1sc2c(c1C(N)=O)CCC(C)C2 (stereo unspecified),"inconclusive: 15.8 µM [inhibitor, full curve, poor fit]"
8,COc1ccc(S(=O)(=O)NCCC(=O)OCC(=O)c2ccc[nH]2)cc1[N+](=O)[O-],"inconclusive: 89.1 µM [inhibitor, partial curve]"
9,COc1ccc(-c2ccc(OC)c(C3C4C=CCCC4(C)C(=O)N3Cc3ccccc3)c2)cc1OC (stereo unspecified),"inconclusive: 28.2 µM [inhibitor, partial curve]"
10,O=C(Nc1ccc(C(O)(C(F)(F)F)C(F)(F)F)cc1)c1ccc(Cl)c([N+](=O)[O-])c1,"inconclusive: 56.2 µM [inhibitor, single point]"
11,CCOc1ccc(C2C(C(=O)c3ccc(C)o3)=C(O)C(=O)N2CCN2CCOCC2)cc1OC (stereo unspecified),active: 28.2 µM
12,COc1cc(/C=N/n2c(C3CCCCC3)n[nH]c2=S)ccc1O,active: 11.2 µM
13,CCOC(=O)C1C(=O)NC(SCC(=O)Nc2nccs2)=C(C#N)C1c1ccccc1OCC (stereo unspecified),active: 56.2 µM
14,CN(C)c1ccc(CNC(=O)C2CCN(Cc3cc4ccccc4n3Cc3ccccc3)CC2)cc1,active: 11.2 µM
15,CCn1c(C(=O)OC)cc2c1ccn2-c1ccc(F)cc1,active: 3.16 µM
16,CCOC(=O)COc1ccc(/C=C2\NC(=S)N(CC)C2=O)cc1,inactive
17,CCN(CC)C(=O)c1ccc(/C=C/c2c[nH]c3ccccc23)[n+](C)c1,"inconclusive: 39.8 µM [inhibitor, single point]"
18,CCOc1ccc(N/C=C/C(=O)c2ccccc2)c([N+](=O)[O-])c1,"inconclusive: 50.1 µM [inhibitor, partial curve, poor fit]"
19,COc1cc(O)c(C(CCN2CCOCC2)c2ccc(N(C)C)cc2)c(OC)c1 (stereo unspecified),active: 44.7 µM
20,COC(=O)C(NC(=O)c1ccccc1C)(Nc1ncc(S(=O)(=O)c2ccc([N+](=O)[O-])cc2)s1)C(F)(F)F (stereo unspecified),"inconclusive: 89.1 µM [inhibitor, partial curve]"
21,COc1ccccc1C(=O)Nc1nnc2n1CCS2,"inconclusive: 14.1 µM [inhibitor, single point]"
22,O=C(NCc1n[nH]c(=S)n1-c1ccccc1Cl)c1ccc(S(=O)(=O)N2CCCCC2)cc1,inactive
23,Cc1c(Cl)cccc1NC(=O)CSc1nc(=O)n(Cc2ccco2)c2c1CCC2,"inconclusive: 89.1 µM [inhibitor, partial curve]"
